Data: the supplement of paper PMC8728848
The other results are listed elsewhere or left out.

Key:
Test in all cases: glycan array binding signal (z-score within array); higher = stronger binding
Conditions in all cases: glycan notation: IUPAC condensed, linker removed
[1] = molecular target: Neu5Ac(a2-6)Gal(b1-4)GlcNAc(b1-2)Man(a1-3)[Man(a1-6)]Man(b1-4)GlcNAc(b1-4)GlcNAc
Procedure, shortened: (§1)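 Glycan array data came from 3228 arrays in the Consortium for Functional Glycomics database, and only arrays with an available protein sequence were kept. Glycan names were put into IUPAC-condensed notation, and columns mapping to the same glycan were averaged. The binding signal is a within-array Z-score, averaged across arrays of one protein sequence run at different concentrations or buffers and across linkers. A negative Z-score can be read as non-binding.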

[2] = molecular target: Neu5Ac(a2-6)Gal(b1-4)GlcNAc(b1-2)Man(a1-3)[Neu5Ac(a2-6)Gal(b1-4)GlcNAc(b1-2)Man(a1-6)]Man(b1-4)GlcNAc(b1-4)GlcNAc
Procedure, shortened: as §1

[3] = molecular target: Neu5Ac(a2-6)Gal(b1-4)GlcNAc(b1-2)Man(a1-6)Man(b1-4)GlcNAc(b1-4)GlcNAc
Procedure, shortened: as §1

[4] = molecular target: Neu5Ac(a2-6)Gal(b1-4)GlcNAc(b1-2)Man(a1-6)[Gal(b1-4)GlcNAc(b1-2)Man(a1-3)]Man(b1-4)GlcNAc(b1-4)GlcNAc
Procedure, shortened: as §1

[5] = molecular target: Neu5Ac(a2-6)Gal(b1-4)GlcNAc(b1-2)Man(a1-6)[GlcNAc(b1-2)Man(a1-3)]Man(b1-4)GlcNAc(b1-4)GlcNAc
Procedure, shortened: as §1

[6] = molecular target: Neu5Ac(a2-6)Gal(b1-4)GlcNAc(b1-2)Man(a1-6)[Man(a1-3)]Man(b1-4)GlcNAc(b1-4)GlcNAc
Procedure, shortened: as §1

[7] = molecular target: Neu5Ac(a2-6)Gal(b1-4)GlcNAc(b1-3)Gal(b1-3)GlcNAc
Procedure, shortened: as §1

[8] = molecular target: Neu5Ac(a2-6)Gal(b1-4)GlcNAc(b1-3)Gal(b1-4)GlcNAc
Procedure, shortened: as §1

[9] = molecular target: Neu5Ac(a2-6)Gal(b1-4)GlcNAc(b1-3)Gal(b1-4)GlcNAc(b1-3)Gal(b1-4)GlcNAc
Procedure, shortened: as §1

[10] = molecular target: Neu5Ac(a2-6)Gal(b1-4)GlcNAc(b1-3)Gal(b1-4)[Fuc(a1-3)]GlcNAc(b1-3)Gal(b1-4)[Fuc(a1-3)]GlcNAc
Procedure, shortened: as §1

[11] = molecular target: Neu5Ac(a2-6)Gal(b1-4)GlcNAc(b1-3)GalNAc
Procedure, shortened: as §1

[12] = molecular target: Neu5Ac(a2-6)Gal(b1-4)GlcNAc6S
Procedure, shortened: as §1

[13] = molecular target: Neu5Ac(a2-6)GalNAc
Procedure, shortened: as §1

[14] = molecular target: Neu5Ac(a2-6)GalNAc(b1-4)GlcNAc
Procedure, shortened: as §1

[15] = molecular target: Neu5Ac(a2-6)GlcNAc(b1-4)GlcNAc
Procedure, shortened: as §1

[16] = molecular target: Neu5Ac(a2-6)GlcNAc(b1-4)GlcNAc(b1-4)GlcNAc
Procedure, shortened: as §1

[17] = molecular target: Neu5Ac(a2-8)Neu5Ac
Procedure, shortened: as §1

[18] = molecular target: Neu5Ac(a2-8)Neu5Ac(a2-3)Gal(b1-4)Glc
Procedure, shortened: as §1

[19] = molecular target: Neu5Ac(a2-8)Neu5Ac(a2-3)[GalNAc(b1-4)]Gal(b1-4)Glc
Procedure, shortened: as §1

[20] = molecular target: Neu5Ac(a2-8)Neu5Ac(a2-8)Neu5Ac
Procedure, shortened: as §1

[21] = molecular target: Neu5Ac(a2-8)Neu5Ac(a2-8)Neu5Ac(a2-3)Gal(b1-4)Glc
Procedure, shortened: as §1

[22] = molecular target: Neu5Ac(a2-8)Neu5Ac(a2-8)Neu5Ac(a2-3)[GalNAc(b1-4)]Gal(b1-4)Glc
Procedure, shortened: as §1

[23] = molecular target: Neu5Ac(a2-8)Neu5Ac(a2-8)Neu5Ac(a2-8)Neu5Ac(a2-3)[GalNAc(b1-4)]Gal(b1-4)Glc
Procedure, shortened: as §1

[24] = molecular target: Neu5Ac(b2-6)Gal(b1-4)GlcNAc
Procedure, shortened: as §1

[25] = molecular target: Neu5Ac(b2-6)GalNAc
Procedure, shortened: as §1

[26] = molecular target: Neu5Ac9Ac(a2-3)Gal(b1-3)GlcNAc
Procedure, shortened: as §1

[27] = molecular target: Neu5Ac9Ac(a2-3)Gal(b1-4)GlcNAc
Procedure, shortened: as §1

[28] = molecular target: Neu5Ac9Ac(a2-6)Gal(b1-4)GlcNAc
Procedure, shortened: as §1

[29] = molecular target: Neu5Gc(a2-3)Gal(b1-3)GlcNAc
Procedure, shortened: as §1

[30] = molecular target: Neu5Gc(a2-3)Gal(b1-3)[Fuc(a1-4)]GlcNAc
Procedure, shortened: as §1

[31] = molecular target: Neu5Gc(a2-3)Gal(b1-4)Glc
Procedure, shortened: as §1

[32] = molecular target: Neu5Gc(a2-3)Gal(b1-4)GlcNAc
Procedure, shortened: as §1

[33] = molecular target: Neu5Gc(a2-3)Gal(b1-4)[Fuc(a1-3)]GlcNAc
Procedure, shortened: as §1

[34] = molecular target: Neu5Gc(a2-6)Gal(b1-4)GlcNAc
Procedure, shortened: as §1

[35] = molecular target: Neu5Gc(a2-6)GalNAc
Procedure, shortened: as §1

[36] = molecular target: Neu5Gc(b2-6)Gal(b1-4)GlcNAc
Procedure, shortened: as §1

B1: Flo11 (Saccharomyces cerevisiae), Q1H8S8 (protein)
chain: MGSSHHHHHHSSGLVPRGSHMFPTALVPRGSSEGTSCNSIVNGCPNLDFNWHMDQQNIMQYTLDVTSVSWVQDNTYQITIHVKGKENIDLKYLWSLKIIGVTGPKGTVQLYGYNENTYLIDNPTDFTATFEVYATQDVNSCQVWMPNFQIQFEYLQGSAAQYASSWQWGTTSFDLSTGCNNYDNQGHSQTDFPGFYWNIDCDNNCGGTKSS
[1]
  glycan array binding signal (z-score): -0.5
[2]
  glycan array binding signal (z-score): -0.496
[3]
  glycan array binding signal (z-score): -0.505
[4]
  glycan array binding signal (z-score): -0.492
[5]
  glycan array binding signal (z-score): -0.505
[6]
  glycan array binding signal (z-score): -0.505
[7]
  glycan array binding signal (z-score): 1.9
[8]
  glycan array binding signal (z-score): 1.17
[9]
  glycan array binding signal (z-score): 2.41
[10]
  glycan array binding signal (z-score): -0.468
[11]
  glycan array binding signal (z-score): 1.73
[12]
  glycan array binding signal (z-score): -0.508
[13]
  glycan array binding signal (z-score): -0.507
[14]
  glycan array binding signal (z-score): -0.509
[15]
  glycan array binding signal (z-score): -0.495
[16]
  glycan array binding signal (z-score): -0.502
[17]
  glycan array binding signal (z-score): -0.497
[18]
  glycan array binding signal (z-score): -0.506
[19]
  glycan array binding signal (z-score): 3.67
[20]
  glycan array binding signal (z-score): -0.504
[21]
  glycan array binding signal (z-score): -0.496
[22]
  glycan array binding signal (z-score): 2.62
[23]
  glycan array binding signal (z-score): 2.65
[24]
  glycan array binding signal (z-score): -0.507
[25]
  glycan array binding signal (z-score): -0.51
[26]
  glycan array binding signal (z-score): -0.505
[27]
  glycan array binding signal (z-score): -0.507
[28]
  glycan array binding signal (z-score): -0.494
[29]
  glycan array binding signal (z-score): -0.503
[30]
  glycan array binding signal (z-score): -0.506
[31]
  glycan array binding signal (z-score): -0.5
[32]
  glycan array binding signal (z-score): -0.505
[33]
  glycan array binding signal (z-score): 3.45
[34]
  glycan array binding signal (z-score): -0.503
[35]
  glycan array binding signal (z-score): -0.508
[36]
  glycan array binding signal (z-score): -0.503
